Reference: PMC8103106
No constants are given. Whether binding was seen depends on the method and setting. In cells and extracts the contact can be indirect. Some binding calls cover weakened binding; strength is not graded here. Sequences can lack the tags named with a protein.

Target: FLAG-RAB7, P51149
Experiment: co-IP; HeLa^WT cells transiently co-expressing VPS41-APEX2-V5 constructs and FLAG-RAB7 or GFP-Arl8b; IP on FLAG or GFP, respectively; CHAPS lysis buffer
Settings: remark: other sources report otherwise

B1: VPS41^WT-APEX2-V5, P49754-1 1-854 (protein)
chain: MAEAEEQETGSLEESTDESEEEESEEEPKLKYERLSNGVTEILQKDAASCMTVHDKFLALGTHYGKVYLLDVQGNITQKFDVSPVKINQISLDESGEHMGVCSEDGKVQVFGLYSGEEFHETFDCPIKIIAVHPHFVRSSCKQFVTGGKKLLLFERSWMNRWKSAVLHEGEGNIRSVKWRGHLIAWANNMGVKIFDIISKQRITNVPRDDISLRPDMYPCSLCWKDNVTLIIGWGTSVKVCSVKERHASEMRDLPSRYVEIVSQFETEFYISGLAPLCDQLVVLSYVKEISEKTEREYCARPRLDIIQPLSETCEEISSDALTVRGFQENECRDYHLEYSEGESLFYIVSPRDVVVAKERDQDDHIDWLLEKKKYEEALMAAEISQKNIKRHKILDIGLAYINHLVERGDYDIAARKCQKILGKNAALWEYEVYKFKEIGQLKAISPYLPRGDPVLKPLIYEMILHEFLESDYEGFATLIREWPGDLYNNSVIVQAVRDHLKKDSQNKTLLKTLAELYTYDKNYGNALEIYLTLRHKDVFQLIHKHNLFSSIKDKIVLLMDFDSEKAVDMLLDNEDKISIKKVVEELEDRPELQHVYLHKLFKRDHHKGQRYHEKQISLYAEYDRPNLLPFLRDSTHCPLEKALEICQQRNFVEETVYLLSRMGNSRSALKMIMEELHDVDKAIEFAKEQDDGELWEDLILYSIDKPPFITGLLNNIGTHVDPILLIHRIKEGMEIPNLRDSLVKILQDYNLQILLREGCKKILVADSLSLLKKMHRTQMKGVLVDEENICESCLSPILPSDAAKPFSVVVFHCRHMFHKECLPMPSMNSAAQFCNICSAKNRGPGSAILEMKK
binding: binds
